Several values for one entry are separate records, joined by “and”; a condition that tells them apart may be missing. Equal entries are not always repeated. The campaign covered roughly 48,000 compounds. About 1,200 (2.5%) were called active. About 2% were inconclusive and are not listed.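 Rule for the calls: active = activation of at least 60% and not above a set upper limit (about 1 call in 100 departs from these limits); inconclusive = activation of 40% to 60%, or above that upper limit; inactive = activation under 40%.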 The list shows a part of the results.
Target: Probable G-protein coupled receptor 32 (Homo sapiens) (UniProt O75388)
Assay: qHTS for Agonists of Human Resolvin D1 Receptor DRV1; note: 0% is about no effect
Settings: CHO-K1 GPR32 beta-arrestin PathHunter luminescence, 90 min; at 76.9 µM; hits give high values; zero percent set by DMSO-only wells
Procedure, shortened: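 CHO-K1 cells stably expressing ProLink-tagged GPR32 and Enzyme Activator-tagged beta-arrestin were seeded at 2,500 cells/well overnight, exposed to compounds for 90 min at 37 °C, then read by beta-Gal complementation chemiluminescence after 1 h detection reagent.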

Chain of UniProt O75388 (O75388 whole entry, looked up): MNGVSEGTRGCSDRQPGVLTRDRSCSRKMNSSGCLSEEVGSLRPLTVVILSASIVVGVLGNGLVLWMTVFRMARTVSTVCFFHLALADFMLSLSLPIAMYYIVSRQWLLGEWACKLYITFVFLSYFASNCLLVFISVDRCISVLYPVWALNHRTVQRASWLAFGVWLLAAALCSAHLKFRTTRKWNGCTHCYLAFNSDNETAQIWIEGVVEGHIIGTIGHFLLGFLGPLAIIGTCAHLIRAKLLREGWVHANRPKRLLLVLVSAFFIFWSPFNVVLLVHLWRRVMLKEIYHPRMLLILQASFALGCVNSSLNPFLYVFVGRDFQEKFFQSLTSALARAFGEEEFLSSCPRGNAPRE

SMILES	activation
O=C(COCc1cc(-c2ccco2)on1)Nc1cccc(Cl)c1Cl	inactive: -21.6%
CCOC(=O)c1cc(-c2ccc(OC)cc2)nn1Cc1ccccc1	inactive: -4.17%
Cc1ccc(CSc2nc3c(c(=O)[nH]2)C(c2cccc(F)c2F)CC(=O)N3)cc1 (stereo not drawn)	inactive: -1.76%
Cc1ccc(C)c(Nc2nnc(-c3ccc(C)c(S(=O)(=O)N4CCCCC4)c3)c3ccccc23)c1	inactive: 7.25%
COc1ccc(N2CCN(C(=O)c3nn(-c4ccc(C)cc4)c(=O)n(C)c3=O)CC2)cc1	inactive: -17.6%
COc1cc2ncc3c(-c4ccccc4)nn(-c4ccc(C)cc4)c3c2cc1OC	inactive: 6.39%
CC(C)c1ccc(NC(=O)C(Cc2ccccc2)NS(=O)(=O)c2ccc3c(c2)CCC(=O)N3)cc1 (stereo not drawn)	inactive: -8.3%
COc1cccc(CNC(=O)CN(C)S(=O)(=O)c2ccc3c(c2)c(=O)n(C)c(=O)n3C)c1	inactive: -2.9%
Cn1nnnc1SCCNCc1ccccc1Cl	inactive: -0.0677%
COc1ccc(NC(=O)c2sc3nc[nH]c(=O)c3c2C)cc1OC	inactive: -4.59%
Cc1ccc(OCC(=O)Nc2ccc3nc(SCC(=O)N(C)c4ccccc4)sc3c2)cc1	inactive: -13.6%
N#C/C(=C\c1ccc(-c2ccc(C(=O)O)cc2)o1)c1nc2ccccc2[nH]1	inactive: 7.95%
COc1ccc(Cl)cc1NC(=O)Cn1cc(S(=O)(=O)Cc2cccc(Cl)c2)c2ccccc21	inactive: -5.35%
CCc1ccccc1Nc1nn2c(=O)c3ccc(C(=O)NCc4ccccc4Cl)cc3nc2s1	inactive: -8.93%
CCOc1ccc(CCNC(=O)c2ccc(CS(=O)Cc3ccc(Cl)cc3)o2)cc1 (stereo not drawn)	inactive: -7.32%
Cn1c(=O)oc2cc(S(=O)(=O)N3CCC(C(=O)N4CCN(c5cccc(Cl)c5)CC4)CC3)ccc21	inactive: 17.9%
CC(C)=CCC/C(C)=C/CO	inactive: 4.55%
Cc1ccc(Cn2c(C)c(CNCc3ccc(OC(C)C)cc3)c(C(=O)O)c2C)cc1	active: 85.6%
CCCCOc1ccc(C(=O)N(Cc2nc(-c3ccc(Cl)cc3)no2)C(C)C)cc1	inactive: -21.7%
CC(=O)N1CCc2cc(Br)cc(S(=O)(=O)CCC(=O)NCCc3ccc(Cl)cc3)c21	inactive: 8.38%
CN1CCc2c(sc3c2C(=O)NC(c2ccc(OC(=O)c4ccc(Cl)cc4)cc2)N3)C1 (stereo not drawn)	inactive: 32.9%
CNC(=O)c1ccc(NC(=O)COc2ccc(-c3nn(C)c(=O)c4ccccc34)cc2)cc1	inactive: 23.5%
CCCCN(C)C(=O)Cn1cnc2sc(C)c(S(=O)(=O)N3CCN(c4ccccc4OC)CC3)c2c1=O	inactive: -2.4%
CCn1ccnc1CC1COc2ccccc2O1 (stereo not drawn)	inactive: 14.4% and inactive: -8.31%
O=C1c2oc3ccccc3c(=O)c2C(c2cccc(Br)c2)N1c1ccccn1 (stereo not drawn)	inactive: 2.14%
Cc1ccccc1NC(=O)Nc1cccs1	inactive: -9.41%
Cc1ccc(OCC(=O)N(Cc2sccc2C)C2CCS(=O)(=O)C2)cc1 (stereo not drawn)	inactive: -22.2%

SMILES	activation
Cc1cc(=O)n2nc(N3CCC(C(=O)NCc4ccc(Cl)cc4)CC3)sc2n1	inactive: -4.98%
Cc1ccc2onc(CC(=O)N3CCN(c4cccc(C)c4C)CC3)c2c1	inactive: -14.7%
CCOC(=O)c1[nH]c2ccccc2c1NC(=O)c1cc(OCC)c(OCC)c(OCC)c1	inactive: 17.9%
Clc1ccc(Nc2nc(-c3ccccc3)c3cc(Cl)ccc3n2)cc1	inactive: -4%
COc1ccc(-c2noc(CSc3nnc(-c4ccncc4)n3-c3ccc(C)c(C)c3)n2)cc1	inactive: -27.8%
CCOc1ccc(NC(=O)Cn2c(CCC(=O)O)ccc2-c2ccc(C)cc2)cc1	inactive: -12.3%
Cc1ccccc1C(=O)Nc1cccc(C(=O)OCc2cc(=O)n3nc(C4CC4)sc3n2)c1	inactive: -6.21%
COc1cc(NC(=O)CC(C)S(=O)(=O)c2cc3c4c(c2)CCN4C(=O)CC3)cc(OC)c1 (stereo not drawn)	inactive: 6.23%
COc1ccc(Cn2c(CO)cnc2SCC(=O)NCc2ccco2)cc1	inactive: 19.7%
Cc1ccc(C)c(CN2C(=O)c3ccccc3Sc3ccc(C(=O)NCc4ccc5c(c4)OCO5)cc32)c1	inactive: -20.3%
Cc1ccc([N+](=O)[O-])cc1S(=O)(=O)N1CCn2cccc2C1c1ccc(F)c(F)c1 (stereo not drawn)	inactive: -15.5%
COc1ccc(NC(=O)c2c(NC(=O)c3cccc(C)c3)sc3c2CCCC3)cc1	inactive: 18%
COc1cc2nc(SCC(=O)Nc3cccc(C)c3)n3nc(-c4ccccc4)nc3c2cc1OC	inactive: 8.24%
COc1ccc(-c2nc(Cn3c(SCc4ccc(F)cc4)nc4cccnc43)c(C)o2)cc1	inactive: -17%
CC(=O)c1cccc(NC(=O)c2ccc3nc(C(C)C)oc3c2)c1	inactive: -3.56%
O=C(CSc1nc2sc3c(c2c(=O)[nH]1)CCCC3)Nc1ccccc1F	inactive: 3.33%
CCOc1ccc(-c2nnc(SCC(=O)Nc3cccc(Cl)c3C)o2)cc1	inactive: -19.4%
CCCNC(=O)CSc1cn(CC(=O)N2CCCCCC2)c2ccccc12	inactive: -24.5%
Cc1ccc2oc(C(=O)Nc3ccc(S(=O)(=O)Nc4nc(C)cc(C)n4)cc3)cc(=O)c2c1	inactive: -5.51%
Cc1ccc2nc(CN3CCN(S(=O)(=O)c4ccc(F)cc4)CC3)oc2c1	inactive: 3.85%
CC(C)Oc1ccc(CNS(=O)(=O)c2ccc(-c3cc(C(F)(F)F)on3)s2)cc1	inactive: -1.86%
Cc1ccc(NC(=O)CCn2cnc3onc(-c4ccc(F)cc4)c3c2=O)c(Br)c1	inactive: 9.61%
COc1ccc(CCNC(=O)CCn2c(=O)c3ccccc3n(Cc3ccccc3C)c2=O)cc1OC	inactive: -3.39%
Cc1c(-c2nc(-c3ccc4c(c3)OCO4)no2)nnn1-c1cccc(C(F)(F)F)c1	inactive: -12.3%
Cc1ccc(Cl)cc1N1CCN(C(=O)COCc2cc(-c3ccc4c(c3)OCO4)on2)CC1	inactive: -12.8%
Cc1cc2c(cc1S(=O)(=O)Nc1cccc(Cl)c1C)OCCN2C	inactive: -18%

From PubChem BioAssay AID1346428 (National Center for Advancing Translational Sciences (NCATS), 2018)
